Measurements as given in PubChem BioAssay AID488969 (Vanderbilt High Throughput Screening Facility, 2010).
Over roughly 110,000 compounds, “z-score” has its median near -0.1; the highest 2% begin near 2. The list shows a part of the results. Activity calls are given as the source filed them.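 How the source made its calls: active means z-score in the third read window above 3 or below -3; inactive means the rest.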

target: Metabotropic glutamate receptor 8 (Rattus norvegicus) (UniProt P70579); assay: mGluR8 Gi/Go-coupled signaling modulation – cell-based, rat, thallium flux, HTS, primary screen (AID 488969); settings: HEK293 rat mGluR8, GIRK (G protein-gated inwardly rectifying potassium channel) thallium flux, FluoZin2; at 10 µM; stronger effect = higher value; submaximal glutamate (EC20) added with thallium
Chain of UniProt P70579 (P70579 whole entry, looked up): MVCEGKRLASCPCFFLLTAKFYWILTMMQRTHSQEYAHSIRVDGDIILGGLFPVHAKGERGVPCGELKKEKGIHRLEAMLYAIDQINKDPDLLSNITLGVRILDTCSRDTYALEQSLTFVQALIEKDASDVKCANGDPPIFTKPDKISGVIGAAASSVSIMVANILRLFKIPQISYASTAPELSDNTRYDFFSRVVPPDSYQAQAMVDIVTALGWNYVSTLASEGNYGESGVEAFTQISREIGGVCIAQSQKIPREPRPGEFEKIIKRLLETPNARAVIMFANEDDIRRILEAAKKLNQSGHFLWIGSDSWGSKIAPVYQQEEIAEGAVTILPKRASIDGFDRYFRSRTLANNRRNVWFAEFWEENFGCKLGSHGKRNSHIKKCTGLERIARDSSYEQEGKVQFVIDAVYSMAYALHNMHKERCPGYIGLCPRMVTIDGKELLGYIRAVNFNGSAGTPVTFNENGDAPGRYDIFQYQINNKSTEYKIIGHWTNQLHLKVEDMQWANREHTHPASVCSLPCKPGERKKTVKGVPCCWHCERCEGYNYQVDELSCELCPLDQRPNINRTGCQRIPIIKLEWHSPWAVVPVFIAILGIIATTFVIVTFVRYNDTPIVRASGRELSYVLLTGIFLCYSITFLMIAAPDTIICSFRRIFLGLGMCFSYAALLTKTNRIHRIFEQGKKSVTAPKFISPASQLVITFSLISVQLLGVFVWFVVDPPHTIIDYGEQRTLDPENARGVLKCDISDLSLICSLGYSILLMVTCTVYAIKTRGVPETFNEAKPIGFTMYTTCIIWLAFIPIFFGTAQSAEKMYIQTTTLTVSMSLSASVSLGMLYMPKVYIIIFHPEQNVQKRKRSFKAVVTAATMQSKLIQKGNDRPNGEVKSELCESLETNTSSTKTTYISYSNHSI

Row | Compound | z-score
1 | CCCc1ccc(OCCNC(=O)CC)cc1 | -0.143
2 | O=C(O)C1CCN(S(=O)(=O)/C=C/c2ccccc2)CC1 | -0.424
3 | CCOC(=O)c1sc(NC(C)=O)nc1C | 0.467
4 | O=C(CN1C(=O)c2ccccc2C1=O)NCCc1c[nH]c2ccccc12 | -0.164
5 | Cc1ccc(NC(=O)c2oc3ccc(S(=O)(=O)N4CCOCC4)cc3c2C)cc1C | 0.23
6 | Cc1csc(SCCn2c(N3CCCC3)nc3c2c(=O)[nH]c(=O)n3C)n1 | 0.396
7 | CCC(=O)N1CCc2cc(S(=O)(=O)NCCC(=O)Nc3cc(C)cc(C)c3)ccc21 | 0.573
8 | Cc1cc(=O)[nH]c2ccccc12 | 0.0895
9 | COc1cc2c(cc1OC)C(C(=O)NC1CC1)C1c3ccccc3CCN1C2=O (centres undefined) | 0.0421
10 | COC(=O)/C=C\C(=O)Nc1cccc([N+](=O)[O-])c1 | -0.0799
11 | O=C(CCCN1C(=O)CCC1=O)Nc1cccc(C(F)(F)F)c1 | -0.24
12 | Cc1cc(C)cc(NC(=O)CSc2ccc(-c3ccco3)nn2)c1 | -0.426
13 | CCC(C)(C(=O)NC1CCCC1)N(C(=O)c1cnccn1)c1ccccc1 (centres undefined) | -0.132
14 | COc1ccc(OCCCC(=O)Nc2cccc(SC)c2)cc1 | 0.21
15 | CCN(CC)CCNc1ccnc2cc(Cl)ccc12 | 1.13
16 | CCN(CC)C(=O)Cn1c(=O)c2ccccc2n2c(=S)sc(-c3cccc(C)c3)c12 | -0.0444
17 | CCNc1nc(NCC)n2c(SC(C)C(=O)c3ccc(C)cc3)nnc2n1 (centres undefined) | 0.295
18 | CCC1(C)Cc2c(sc3nnn(Cc4ccccc4Cl)c(=O)c23)CO1 (centres undefined) | -0.181
19 | COc1ccc(OC)c(-c2nnc(-c3ccc(C)o3)o2)c1 | 0.00649
20 | Cn1c(-c2ccc3c(c2)OCO3)cnc1NCc1ccccc1 | -0.0491
21 | Cc1nc2c(c3c1[nH]c1ccccc13)C(O)CC(C)(C)C2 (centres undefined) | 0.34
22 | O=C(NCc1cccnc1)c1ccc(COc2cccc3ccccc23)o1 | 0.786
23 | O=C(Nc1cccc(F)c1)N1CC=C(c2ccc(Cl)cc2)CC1 | -0.206

Row | Compound | z-score
24 | CCOC(=O)CSc1nc(C)c2ccccc2n1 | -0.33
25 | COc1ccc(/C=N/OCC(=O)NC(c2ccccc2)c2ccccc2)cc1OC | -0.211
26 | Cc1oc(C(=O)O)cc1COc1ccc2c(C)cc(=O)oc2c1 | -0.233
27 | CCn1nc(NC(=O)c2ccncc2)c2cc3ccc(C)cc3nc21 | -0.292
28 | COc1cc2c(cc1OC)C(c1ccc(-c3cc(Cl)ccc3Cl)o1)=NCC2 | -0.401
29 | Cc1c(C(=O)NCc2cccs2)oc2ccccc12 | -0.531
30 | O=C(N/N=C/c1ccc2c(c1)OCO2)c1ccc(Br)o1 | -0.0771
31 | CCC(=O)N1CCN(c2ccc(NC(=O)c3cc4ccccc4o3)cc2)CC1 | -0.0586
32 | CCc1nn2c(=O)cc(N3CCN(c4cc(C)nc5ccccc45)CC3)nc2s1 | -0.0623
33 | N#Cc1cnc(SCC(=O)Nc2ccccc2C(F)(F)F)nc1N | -0.266
34 | CSC1=NCCN1C(=O)c1ccco1 | 0.435
35 | CCOC(=O)CSc1cc(CS(=O)c2ccc(Cl)cc2)nc(-c2ccccc2)n1 (centres undefined) | 0.0352
36 | COc1ccc(/C=N/NC(=O)CCC(=O)Nc2ccccc2)cc1OC | 0.0251
37 | CN(C)CC(C)(C)CNC(=S)Nc1ccc(S(=O)(=O)N2CCOCC2)cc1 | 0.179
38 | CC(Oc1ccc(Cl)cc1Cl)C(=O)NCCCN1CCOCC1 (centres undefined) | -0.388
39 | COc1ccnc(Oc2ccc3ccccc3c2)c1C#N | 0.0286
40 | Cc1noc(C)c1CN1C(=O)NC2(CCCCCCC2)C1=O | -0.258
41 | O=C1c2cc(N3CCCC3)c([N+](=O)[O-])cc2C(=O)N1c1ccccc1 | -0.0728
42 | CCOc1ccc(C(=O)C[n+]2ccccc2C)cc1 | -0.0739
43 | O=C(N1CCOCC1)N1CCN(S(=O)(=O)N2CCCCC2)CC1 | 0.052
44 | Cn1cc(S(=O)(=O)N2CCN(c3ccccc3)CC2)c(=O)n(C)c1=O | -0.251
45 | O=c1ncn(-c2cccc(F)c2)c2ncccc12 | -0.0987
46 | O=C(Nc1ccc(Br)cc1)c1cccn1-c1ncc(C(F)(F)F)cc1Cl | -0.397

Row | Compound | z-score
47 | CCOc1ccc(C(=O)NC(=S)Nc2ccc(NC(=O)c3ccco3)cc2)cc1[N+](=O)[O-] | 0.282
48 | COc1ccc(C(CC(=O)NCc2ccco2)c2ccc(F)cc2)cc1 (centres undefined) | -0.992
49 | COc1ccc(C(=O)N/N=C(\C)Cn2nc([N+](=O)[O-])cc2C)cc1 | -0.183
50 | O=C(Cn1cnc2ccccc2c1=O)Nc1cccc(-c2nnc3n2CCCCC3)c1 | -1.38
51 | O=C(CSc1nc2ccccc2c(=O)n1-c1ccc(Cl)cc1)N/N=C/C=C/c1ccccc1[N+](=O)[O-] | -0.132
52 | CCCc1c(C)c2c(C)[nH]nc2oc1=O | -0.229
53 | CC(C)c1ccccc1NC(=O)COC(=O)Cc1c[nH]c2ccccc12 | 0.295
54 | N#CCCN1CCN(C(=S)c2ccc(-c3cccc(Cl)c3)o2)CC1 | -0.185
55 | N#C/C(C(=O)NCc1ccccc1)=C1/N=C(NC(=O)c2cccs2)c2ccccc21 | 0.0706
56 | C=CCn1c(SCC(=O)NC)nc2sc3c(c2c1=O)CCC3 | -0.523
57 | NCC(c1ccccc1)(c1ccccc1)c1ccccc1 | -0.398
58 | N#Cc1ccc(N2C(=O)[C@@H]3C(C(=O)c4ccc5ccccc5n4)=NN[C@@H]3C2=O)cc1 | -0.208
59 | C=CCc1ccc(OCCOCCNCCOC)c(OC)c1 | 0.267
60 | Cc1cccc(NC(=O)C2CC(=O)NC(Nc3nc4ccccc4s3)=N2)c1 (centres undefined) | 0.371
61 | O=S(=O)(Nc1nc2ccccc2nc1N1CCc2ccccc2C1)c1ccc(Cl)cc1 | 0.0945
62 | COC(=O)CSc1nc(C(C)C)nc2ccccc12 | -0.577
63 | CC(=O)N1c2ccc3ccccc3c2C(C)CC12CCCCC2 (centres undefined) | 1.11
64 | CCc1c(C)[nH]c2c(C)cccc2c1=O | -0.337
65 | CCN(CC)C(=O)c1sc(NC(=O)c2ccc3c(c2)OCO3)c(C#N)c1C | 0.387
66 | CCOC(=O)C1CCCN(c2c(N3CCc4ccccc4C3)c(=O)c2=O)C1 (centres undefined) | -0.242
67 | Cc1ccccc1N=Cc1cc2c(cc1[N+](=O)[O-])OCO2 | -0.121
68 | CCCCOc1ccc(OC(=O)c2cccnc2)cc1 | -0.235
69 | COc1ccc(C)cc1N(C(=O)c1cccc(F)c1)c1nc2ccccc2s1 | -0.071

Row | Compound | z-score
70 | CS(=O)(=O)N1CCN(c2ccccc2NC(=O)Cc2ccc(Cl)cc2)CC1 | -0.7
71 | COc1ccccc1Nc1nc(=O)[nH]nc1C | 0.343
72 | CCn1c(SCC(=O)Nc2nccs2)nnc1-c1ccccc1 | 0.00786
73 | CCN(Cc1ccccc1)CC(O)COc1ccccc1 (centres undefined) | 0.411
74 | CCOC(=O)CSc1nc2cc(C)ccc2cc1C#N | -0.369
75 | COc1ccc2sc(SCCCS(=O)(=O)O)[n+](CCCS(=O)(=O)[O-])c2c1 | -0.199
76 | CC1Cc2ccccc2N1C(=O)CSc1nnnn1C(C)C (centres undefined) | -0.364
77 | CCOC(=O)c1sc(NC(=O)C(C)(C)C)cc1C | 0.0836
78 | CCCCCOc1ccc(C(=O)NC(CCC)C(=O)O)cc1 (centres undefined) | -0.208
79 | COc1ccccc1NC(=O)N1CCc2[nH]c3ccc(F)cc3c2C1 | 1.22
80 | COc1cccc(CNCCO)c1OCc1ccccc1Cl | -0.209
81 | Cc1ccc(C)c(N2CCN(C(=O)C3CCN(c4nc(C)cc(C)n4)CC3)CC2)c1 | -0.495
82 | Cc1ccnc(NC(=O)CCC(=O)N(CC(=O)NCc2ccccc2)c2ccc3c(c2)OCO3)c1 | -0.744
83 | Cc1ccc(-n2nc(CC#N)c(C#N)c2N)cc1 | -0.271
84 | CC1=C(C(=O)OCC(C)C)C(c2ccsc2)NC(=O)N1 (centres undefined) | -0.356
85 | O=[N+]([O-])c1ccc(/C=C2\CCC(C3=CCCC3)=C2N2CCOCC2)cc1 | 0.183
86 | COC(=O)c1cc(CSc2nc3ccc(C)cc3[nH]2)oc1C | active: -4.79
87 | CSc1nsc(SCc2ccc(F)cc2)n1 | -0.401
88 | COc1ccc(CN(C(=O)c2ccco2)c2ccc(Br)cc2)cc1OC | -0.544
89 | Cn1cccc1Cc1nnc(SCC(=O)Nc2ccccc2F)n1CCc1ccccc1 | -0.478
90 | O=C(/C=C/Sc1ccccc1)c1ccc(Cl)cc1 | 0.341
91 | Cc1ccccc1NC(=S)NC(=O)c1cncc(Br)c1 | active: 6.92
92 | CCOC(=O)NCc1ccc(S(=O)(=O)Nc2ccc(C)cc2)cc1 | 0.21

Row | Compound | z-score
93 | CCCCN1C(=O)C(O)(CC(=O)c2c(C)n[nH]c2C)c2cc(Br)ccc21 (centres undefined) | -0.247
94 | CC(C)N(C(=O)Cn1cnc2c(cnn2-c2ccccc2Cl)c1=O)C(C)C | 0.0448
95 | CCSc1ccccc1C(=O)N1CCN(Cc2ccc3c(c2)OCO3)CC1 | 0.179
96 | C#CCN1C(=O)S/C(=C/C=C/c2ccc(N(C)C)cc2)C1=O | -0.129
97 | CCSc1ccccc1C(=O)Nc1cccc(OC)c1 | -0.621
98 | COc1cc(/C=N/N=C2/NC(=O)C(CC(=O)O)S2)ccc1OCc1ccc(Cl)cc1 (centres undefined) | -0.357
99 | Cc1cc(Cl)c(S(=O)(=O)N2CCSCC2)cc1OCC(N)=O | 0.0251
100 | COC(=O)C1CSC(C(=O)OC)N1C(=O)Nc1ccccc1 (centres undefined) | -0.135
101 | Cc1ccc(N(C(=O)c2csnn2)C(C(=O)NC(C)(C)C)c2cccs2)cc1 (centres undefined) | 0.462
102 | Cc1cc(Cl)ccc1OC(C)C(=O)Nc1ccc(S(=O)(=O)Nc2cnc3ccccc3n2)cc1 (centres undefined) | -2.58
103 | CC(=O)N(/N=C1\Sc2ccccc2C1=O)c1ccc(C)cc1C | -0.638
104 | CS(=O)(=O)N(CC(=O)NCc1ccco1)c1ccccc1Cl | -0.137
105 | CCCn1c(=O)c(C(=O)c2ccccc2)nc2ccccc21 | -0.131
106 | COCc1cc(CN2CCN(C)CC2)c(O)c2ncccc12 | -0.478
107 | C=CCn1c(CSc2nc3ccccc3s2)nnc1SCC(=O)NCc1cccnc1 | -0.118
108 | O=C(NCCCNC1CCCCC1)c1ccc(/C=N/O)nc1 | -0.314
109 | CCOc1ccc(N2CC(=O)SC2=S)cc1 | 0.81
110 | Cc1cccc(-n2nnc(C(=O)NCc3ccccc3)c2N)c1 | -0.985
111 | COC(=O)c1ccccc1NC(=O)CSc1nnc(Cc2ccc(Cl)cc2)o1 | -0.323
112 | CCC(CC)C(=O)Nc1c(C)n(C)n(-c2ccccc2)c1=O | 0.0217
113 | Cc1c(NC(=O)c2ccc(F)c(S(=O)(=O)N3CCOCC3)c2)c(=O)n(-c2ccccc2)n1C | -0.691
114 | COc1ccc2c(c1OC)C(=O)N1N=C(c3ccc(O)cc3)CC21 (centres undefined) | -0.236
